According to US20100047253A1 (Amgen, published 2010):

Molecular target: T1, IL-13 receptor alpha 2 on HDFa cells (human, UniProt Q14627 27-380)
T1 construct: whole, on cells; also called IL-13Rα2; IL-13Ra2
T1 sequence (looked up): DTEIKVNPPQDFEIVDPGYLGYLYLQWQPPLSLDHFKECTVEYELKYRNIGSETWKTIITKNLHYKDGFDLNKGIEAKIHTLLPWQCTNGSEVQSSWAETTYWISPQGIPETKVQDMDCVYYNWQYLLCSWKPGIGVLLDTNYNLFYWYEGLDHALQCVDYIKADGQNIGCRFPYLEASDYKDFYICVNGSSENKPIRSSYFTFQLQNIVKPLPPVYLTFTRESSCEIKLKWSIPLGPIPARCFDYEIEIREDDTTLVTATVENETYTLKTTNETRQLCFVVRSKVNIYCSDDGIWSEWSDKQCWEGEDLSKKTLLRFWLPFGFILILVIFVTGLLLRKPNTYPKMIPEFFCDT
Test: Flow cytometry on HDFa cells: IL-13 pre-incubated with 731 and added to cells with or without anti IL-13Ra1, anti IL-13Ra2 or anti IL-4R, detection of 731 with goat anti Hu IgG-Fc-Cy5

- binding result: binds
B1: Recombinant Human IL-13 (R & D 213-IL-005) (ligand)
chain: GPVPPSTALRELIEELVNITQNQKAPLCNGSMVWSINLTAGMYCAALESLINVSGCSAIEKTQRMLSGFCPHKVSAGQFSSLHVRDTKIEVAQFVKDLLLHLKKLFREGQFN
notes: also called IL-13 antigen (R&D Systems)
